Hit rate of the full screen: of about 310,000 compounds, about 2,200 (0.71%) showed an effect of 50% or more. The effect is printed as a negative number. The list shows a part of the results.
Target: human ether-à-go-go-related gene (hERG) potassium channel (human, UniProt Q12809)
Experiment: primary screen, population patch clamp on CHO cells stably expressing hERG

human ether-à-go-go-related gene (hERG) potassium channel, sequence (Q12809 whole entry, looked up): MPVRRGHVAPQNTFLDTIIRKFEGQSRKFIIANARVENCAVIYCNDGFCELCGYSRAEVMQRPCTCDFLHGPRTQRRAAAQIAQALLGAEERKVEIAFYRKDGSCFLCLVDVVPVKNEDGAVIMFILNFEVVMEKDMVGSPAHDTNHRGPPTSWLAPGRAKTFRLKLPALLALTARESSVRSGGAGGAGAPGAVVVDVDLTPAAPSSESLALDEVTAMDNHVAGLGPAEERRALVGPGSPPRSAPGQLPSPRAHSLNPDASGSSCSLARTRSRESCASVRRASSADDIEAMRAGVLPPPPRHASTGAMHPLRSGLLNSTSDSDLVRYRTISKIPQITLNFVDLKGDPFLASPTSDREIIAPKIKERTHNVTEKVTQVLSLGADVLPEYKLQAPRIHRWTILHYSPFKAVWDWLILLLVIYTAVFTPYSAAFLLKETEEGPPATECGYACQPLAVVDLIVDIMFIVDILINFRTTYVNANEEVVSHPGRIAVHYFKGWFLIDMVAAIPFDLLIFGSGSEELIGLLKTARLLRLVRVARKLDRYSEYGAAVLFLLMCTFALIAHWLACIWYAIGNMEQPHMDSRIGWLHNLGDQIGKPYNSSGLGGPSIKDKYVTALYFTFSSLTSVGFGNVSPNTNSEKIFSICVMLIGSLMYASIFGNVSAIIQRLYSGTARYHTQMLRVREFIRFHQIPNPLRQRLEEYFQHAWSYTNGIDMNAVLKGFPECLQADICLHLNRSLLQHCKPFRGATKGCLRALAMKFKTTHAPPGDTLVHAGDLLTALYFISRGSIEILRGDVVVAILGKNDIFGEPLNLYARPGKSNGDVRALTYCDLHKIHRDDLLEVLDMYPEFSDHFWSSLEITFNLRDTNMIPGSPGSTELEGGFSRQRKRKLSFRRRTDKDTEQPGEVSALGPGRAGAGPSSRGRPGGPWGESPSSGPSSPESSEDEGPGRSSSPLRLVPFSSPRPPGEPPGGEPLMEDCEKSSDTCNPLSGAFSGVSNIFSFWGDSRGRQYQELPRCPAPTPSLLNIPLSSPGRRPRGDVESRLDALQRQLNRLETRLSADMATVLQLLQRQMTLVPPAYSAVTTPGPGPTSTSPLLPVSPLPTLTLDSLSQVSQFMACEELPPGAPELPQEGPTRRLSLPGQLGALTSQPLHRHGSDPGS

Row | SMILES | hERG current change (%, negative = inhibition) at 1uM
1 | O=c1c2sccc2n(Cc2ccc(F)cc2)c(=O)n1-c1ccc(F)cc1 | 8.53%
2 | CC(C)OC(=O)Cc1nc2sc(-c3ccccc3)cc2c(=O)[nH]1 | 7.42%
3 | O=C(/C=C/c1ccccc1)NNC(=O)c1cccnc1 | 14.9%
4 | O=C(O)C(c1ccccc1)N1C(=O)c2cccc3cccc(c23)C1=O (centres unmarked) | 12.3%
5 | COc1cc(OC)cc(C(=O)N[C@H](C(=O)NCc2ccc(F)cc2)C(C)C)c1 | 10.8%
6 | CN1CCC(OC(=O)c2cccc(Cl)c2)CC1.Cl | 6.08%
7 | Cc1nnc(SC(C)C(=O)Nc2ccc(Cl)cn2)n1Cc1ccccc1 (centres unmarked) | 1.33%
8 | COc1ccc(-c2csc(NC(=O)C3CCCCN3S(=O)(=O)c3ccccc3)n2)cc1 (centres unmarked) | 13.3%
9 | CCn1cc(C(=O)NC2CCCCCC2)c(=O)c2ccc(C)nc21 | 14.3%
10 | CN(C(=O)COC(=O)/C=C/c1cccc([N+](=O)[O-])c1)C1CCS(=O)(=O)C1 (centres unmarked) | 2.04%
11 | O=C(CN1C(=O)/C(=C/c2ccccc2)SC1=S)N1CCN(CCc2ccccn2)CC1 | 6.83%
12 | COc1cccc(CN2CCN(Cc3ccc(OC)c(OC)c3)CC2CCO)c1 (centres unmarked) | -8.91%
13 | C#CCOCCOCCOCCNc1nc(N2CCOCC2)nc(N2CCN(C(=O)[C@H]([C@@H](C)CC)n3cc(CCCC[NH3+])nn3)CC2)n1.[Cl-] | 16.2%
14 | CCN(CC)CCCN1C=C2C(=O)C(C)(OC(=O)C3CCCC3)C(=O)C=C2C=C1c1ccsc1 (centres unmarked) | -0.231%
15 | CCC1CCCCN1CCCNC(=O)c1ccc2c(c1)N(Cc1c(F)cccc1Cl)C(=O)CS2 (centres unmarked) | 12.2%
16 | NC(=O)C1CCN(/C=C2\C(=O)NC(=O)N(Cc3ccco3)C2=O)CC1 | 8.95%
17 | CCOc1cc(/C=N/NC(=O)c2c(-c3ccccc3)noc2C)ccc1O | 7.02%
18 | O=C(N/N=C/c1c(F)cccc1Cl)C1CC1 | 17.1%
19 | CN(C(=O)Cn1nc(C(=O)O)c2ccccc2c1=O)C1(C#N)CCCCC1 | 12%
20 | CC(=O)COC(=O)c1ccc2noc(-c3ccccc3)c2c1 | 8.66%
21 | O=C(CSc1nnc(CNc2ccc(F)cc2)n1Cc1ccco1)N1CCOCC1 | 4.83%
22 | COC(=O)c1c(NC(C)=O)sc(C(=O)Nc2ccccc2)c1C | 26.1%
23 | CC(NCc1ccc(Cl)cc1)C(O)c1ccccc1.Cl (centres unmarked) | 1.64%

Source: article PMC4336329 (PLoS ONE, 2015)
